According to publication PMC10726135:
The other results are listed elsewhere or left out. At the low end of the ranking the order means little. Measured with an extract: partners may take part in the binding.

biological target: T1, HNF4alpha8 (COS-7 nuclear extract) (UniProt P41235-5); test: protein-binding microarray; details: COS-7 nuclear extract on double-stranded Agilent 4x180k PBM; binding buffer, salt, pH and temperature not given; high values mean tight binding; double strand, one strand shown; sequences stand for … in …GCCTAGGGAGATTAGAGTATCGGTCGA
T1 sequence: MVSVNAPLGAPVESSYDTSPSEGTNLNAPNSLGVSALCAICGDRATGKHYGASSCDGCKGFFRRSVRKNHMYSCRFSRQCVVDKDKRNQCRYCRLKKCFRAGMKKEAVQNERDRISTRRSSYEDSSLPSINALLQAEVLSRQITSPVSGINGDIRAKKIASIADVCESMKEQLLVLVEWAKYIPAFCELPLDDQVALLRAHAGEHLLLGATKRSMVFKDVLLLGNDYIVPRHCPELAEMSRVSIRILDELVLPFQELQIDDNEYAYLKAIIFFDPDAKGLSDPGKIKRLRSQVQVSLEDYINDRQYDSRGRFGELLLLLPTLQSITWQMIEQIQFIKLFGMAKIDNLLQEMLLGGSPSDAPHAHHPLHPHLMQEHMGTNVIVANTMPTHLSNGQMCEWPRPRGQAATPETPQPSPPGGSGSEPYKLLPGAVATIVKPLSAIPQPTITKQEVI

Sequence | binding signal (log2 normalized intensity)
TTTGTAAGTACATTAATATACTGTGTATAC | 1.44
TACTCTCTCTTCTGGAGGAGGATCAGGTTT | -0.165
AAGTGCGTCCTGTGGCAAAGGTGAATGACC | 2.99
CGCACCTGCCTGTCTCACCTCGCTATCACC | -1.18
GGAAAACAGGCTCAGCAAAGTCAGGTCAGT | 0.163
TCACAGTGTGGGGCAAATCTGAGGTCAAAG | 2.51
AATGCCAAGGACTGAAAGAACACAGCGCAG | -1.31
AGGGATGGCATCACCTTTGGTCAGCCCACT | 2.79
GGTCCACCCGTCCGCTTGATGCCTGTTGCT | 0.303
TGAAGATGCCTGATAAAGGGGGCAAAGGGC | 6.94
TTGTTTATTCAGAGTTAGCTAAGCTTCACT | -1.25
GAGCAGTCAAACTGGTTTCTTGTCTGCCCC | 3.57
ACCTCTCTGATGCCATGATAAGCAGTGTGG | 0.716
CACTATTGTGCTAATATAAGTCATTGCCAT | 0.705
AATGGCTAAGGGCATCTACTTTTAAAACGC | -1.31
TCATTTGGGGCGGGCGGTCGGAGTCCACGT | 3.01
TAAGTATGACCAGCAGGGTGACCAGTGGAC | 1.87
ACCTGGGTGTAGGTGCTGCACCTTGAAACC | 2.83
TGAACAATTGATTTATAGCCTTTTTGCCCA | 1.33
CTTTGTGGCAGGAGGAGCTGTTTGACATCC | 0.44
ACAACACACCACCTGCTACTCCCTTTGGAA | -1.37
TGCTCACGTTTTCCTGCTGACCCTCTCCCC | 4.22
AAGAGCTGAGGAAAAAAGTTTGAAAATGCC | -1.18
ATTTGCTCTGTCATCAACGTATCTGCAGGC | 0.072

Sequence | binding signal (log2 normalized intensity)
CACTCGCCTGACTCCCTGACGCCATCTGGC | -1.28
GCTGCACAGTGGGGAGGGCAGGGTCAGAAC | 1.42
ACATCCTGGATTCTCAAACCTTCCAAAGTT | 0.853
GCAGCCTCTGAGATGGACTCCAGTGATCTT | 2.76
TATTTGAGTTCTTCAAGTCAGTCAAAATGA | 1.18
TTGGAGGAGGGGGCGGTTAAACATTCAGAT | -1.32
CGACCCCTCGAGGCAACCTTTGACCTGGTA | 8.16
GCATTCCAAGAGAGCAAAGTGCTTTTTAAC | 1.58
CCCTCCTGAACATAATTGCAAAATCCTTAG | -1.25
CTTTCATGATCCTTGGCTGTGTGACTCACC | 1.05
GACTTTAGAACCCAAATAGACTTAAGTCTG | 0.828
GGAGTTCCATTTAGCTTCAGTCTAAATGAT | -0.39
GTCTGATTGGTTGCAGAAGGCAGCCAAACA | -1.4
AGGCATACTCCTCCTGGCTTCTGGACTATG | 3.12
GGGAAAGACTTAGGATCTAGCAAATTTGGG | -1.37
CAAATGCTTCCAAGAATTTAAGAGAACTAG | -1.41
TCGCAGCTGCATAGATAAGAAAGGCTACAA | -1.32
TGGTGGACGTACGCTCCCAGTATGAGCGGC | -1.2
CTAAGCAGGCACATTCCAGGACCTTTGCTC | 4.83
CAATGTGTGACAGAAGTCATGTCTCATTGC | 0.632
ATGCCAGATGACCTTTGCCCTTGACTTTTT | 9.28
AGAGGAAAGCCCTAGCTGACTGCGTCAGGC | -1.48
TTACATGCCTTATCTGGTTCAAAGGTCATT | 8.2
AAAGCCACCCCTTTCTCCTCTCTTTCCATA | 0.633

Sequence | binding signal (log2 normalized intensity)
CGAGAAGGCAGCCACCCACAAGCCAAGGAG | -1.27
ACTCCAGAACCAAAGTCCTAGAGTCCCTAT | -1.32
CTAGGCAATCCCATGACCTTTGTACTAATG | 8.3
TATGTTGTCCGGACACCAACCTTTGATCAT | 6.21
CAAAGTCCGCTTGCCTGAGGGTCATGACTA | 2.89
CCGGGAATCCTCAGCCTTCTCCGCGGCGGG | -1.39
AAGCACTTCAAAGGTCGTGTGCTTATCACA | 2.06
TAGCAGGTGACAAATCCAGGATCAAATACA | -1.47
CATATTTGCTTAAGCTTTCTGTCTGCAGCT | -1.31
TTTTTGGCCTTTACCCCTTGAGTTTGAACT | 4.12
GCAGCAGCCGGCCTCTTAACAGATGAGGAC | -1.26
TTTGGAAAACTGGCCCTGATTTCAAAGTTC | 3.23
CCCCTGACTACCAGCCAGTAGGAGTTGGAA | -1.11
CATAGTTGACATTCCATCATTATCCTGTGT | 1.7
ACTTTACAGATAAAGAAACCATAGACCCTA | -1.32
CACATTCAGCCCACTTCCTACCATCAAAGG | 0.434
TTTGACCATCCACGGGTCCATGATTGCTGT | 2.1
AGATAGCTTGAGGCCAGCTCATAGGGATCA | -1.29
GTGAGAGGCGGAACAAGGCTGAAGGGAAGC | -1.34
GTAAAAACAGTTATGGATTAAAAGCACATA | -1.21
ACCTTGTTTTGTCTTCTGTTTGCAAATGGA | 2.22
AGGGGCTGCTGGGAGTTGTAGTTTTTTGGG | 1.32
TGCATTCTTGTAGGTTTTTTTTTTTTTTAA | 2.24
CTTTTTTTTTTCAAGTGTTAGCTGTTTCCA | 0.447

Sequence | binding signal (log2 normalized intensity)
TCTGCTGAGGTGGCTGCAGAGTGGGAGGCC | -1.27
TTCCCTCCACTTCCTTTCTTTCCCTTTCTG | 0.396
TGCACAGGTTCCTCGCCTATGGTATGTATG | 1.53
TTGAAGCTCCAAGATAGGAATGTACATAAT | 0.638
AGGGTTTAAAGGGCAGAAGAAGGGATTTAG | 1.74
ACTCCTGGAAAAACCACACACTCCATAACT | -1.17
GTTAGATAGAGGAGTCAAGCAAACACACTT | -1.31
AGCATTTGTTTTAAGTTCATAGGTCCTCTT | 2.24
CCTGGACCCCTCCGGCAGCGGCCGGAAAAA | 1.66
CCTCGGGTCCCACACACCTCAAATGCAGGT | -1.37
ACCCTAGAGATGTACACAGTTCAAAGGGCA | 6.49
AAAGGAATGTGCCTGCAAGTTCAAAAGGAC | 1.17
CTTAACAAACACAAAAAGCGGACAAACCAG | -1.35
AAGATAAAGTGTCTCTATTTGGAACCAAGA | 0.941
GTTGGAAGCTGATAAGCCAAGAATGTACTC | 0.371
GGCAAGCAGGAGCTGGCCTGGTAGGACAGG | -1.33
GCCAGGGATTAAAGAATTCGTCCAGGGCCG | -1.27
GAGAGTCAACACTGAAATAGCATACCTTTA | -1.02
TCCATCAATGAAGCATATCAGTAGTTGCAA | 0.0715
GAATGCTGTCCTGCCAGTTGTCATTTGGGG | 0.651
TTCTTTATGGACCTTGTCCCTGGATTGTGT | 4.6
